Some of the results follow.
Assays:
Assay in all cases: glycan array binding signal (z-score within array); higher = stronger binding
Details in all cases: glycan notation: IUPAC condensed, linker removed; mutation: K176L
[1] = target: Fuc(a1-3)[Gal3S(b1-4)]GlcNAc
In short: (§1)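 Columns mapping to the same glycan were averaged after glycan names were converted to IUPAC-condensed notation. The data come from 3228 arrays in the Consortium for Functional Glycomics database, limited to those with an available protein sequence. Binding is reported as a within-array Z-score averaged across arrays of one protein sequence and across linkers.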

[2] = target: Fuc(a1-3)[Gal3S(b1-4)]GlcNAc6S
In short: as §1

[3] = target: Fuc(a1-3)[GalNAc(b1-4)]GlcNAc
In short: as §1

[4] = target: Fuc(a1-4)GlcNAc
In short: as §1

[5] = target: Fuc(b1-3)GlcNAc
In short: as §1

[6] = target: Gal(a1-2)Gal
In short: as §1

[7] = target: Gal(a1-3)Gal
In short: as §1

[8] = target: Gal(a1-3)Gal(b1-3)GlcNAc
In short: as §1

[9] = target: Gal(a1-3)Gal(b1-3)GlcNAc(b1-2)Man(a1-3)[Gal(a1-3)Gal(b1-3)GlcNAc(b1-2)Man(a1-6)]Man(b1-4)GlcNAc(b1-4)GlcNAc
In short: as §1

[10] = target: Gal(a1-3)Gal(b1-3)[Fuc(a1-4)]GlcNAc(b1-2)Man(a1-3)[Gal(a1-3)Gal(b1-3)[Fuc(a1-4)]GlcNAc(b1-2)Man(a1-6)]Man(b1-4)GlcNAc(b1-4)GlcNAc
In short: as §1

[11] = target: Gal(a1-3)Gal(b1-4)Glc
In short: as §1

[12] = target: Gal(a1-3)Gal(b1-4)GlcNAc
In short: as §1

[13] = target: Gal(a1-3)Gal(b1-4)GlcNAc(b1-3)GalNAc
In short: as §1

[14] = target: Gal(a1-3)Gal(b1-4)[Fuc(a1-3)]GlcNAc
In short: as §1

[15] = target: Gal(a1-3)Gal(b1-4)[Fuc(a1-3)]GlcNAc(b1-2)Man(a1-3)[Gal(a1-3)Gal(b1-4)[Fuc(a1-3)]GlcNAc(b1-2)Man(a1-6)]Man(b1-4)GlcNAc(b1-4)GlcNAc
In short: as §1

[16] = target: Gal(a1-3)GalNAc
In short: as §1

[17] = target: Gal(a1-3)[Gal(a1-4)]Gal(b1-4)GlcNAc
In short: as §1

[18] = target: Gal(a1-4)Gal(b1-3)GlcNAc(b1-2)Man(a1-3)[Gal(a1-4)Gal(b1-3)GlcNAc(b1-2)Man(a1-6)]Man(b1-4)GlcNAc(b1-4)GlcNAc
In short: as §1

[19] = target: Gal(a1-4)Gal(b1-4)Glc
In short: as §1

[20] = target: Gal(a1-4)Gal(b1-4)GlcNAc
In short: as §1

[21] = target: Gal(a1-4)Gal(b1-4)GlcNAc(b1-2)Man(a1-3)[Gal(a1-4)Gal(b1-4)GlcNAc(b1-2)Man(a1-6)]Man(b1-4)GlcNAc(b1-4)GlcNAc
In short: as §1

[22] = target: Gal(a1-4)Gal(b1-4)GlcNAc(b1-3)Gal(b1-4)Glc
In short: as §1

[23] = target: Gal(a1-4)GlcNAc
In short: as §1

[24] = target: Gal(a1-6)Glc
In short: as §1

[25] = target: Gal(b1-2)Gal
In short: as §1

[26] = target: Gal(b1-3)Gal
In short: as §1

[27] = target: Gal(b1-3)Gal(b1-4)GlcNAc
In short: as §1

[28] = target: Gal(b1-3)Gal(b1-4)GlcNAc(b1-2)Man(a1-3)[Gal(b1-3)Gal(b1-4)GlcNAc(b1-2)Man(a1-6)]Man(b1-4)GlcNAc(b1-4)GlcNAc
In short: as §1

[29] = target: Gal(b1-3)GalNAc
In short: as §1

[30] = target: Gal(b1-3)GalNAc(a1-3)[Fuc(a1-2)]Gal(b1-4)Glc
In short: as §1

[31] = target: Gal(b1-3)GalNAc(a1-3)[Fuc(a1-2)]Gal(b1-4)GlcNAc
In short: as §1

[32] = target: Gal(b1-3)GalNAc(b1-3)Gal(a1-4)Gal(b1-4)Glc
In short: as §1

[33] = target: Gal(b1-3)GalNAc(b1-4)Gal(b1-4)Glc
In short: as §1

[34] = target: Gal(b1-3)GalNAc(b1-4)[Neu5Ac(a2-3)]Gal(b1-4)Glc
In short: as §1

[35] = target: Gal(b1-3)GlcNAc
In short: as §1

[36] = target: Gal(b1-3)GlcNAc(a1-6)Gal(b1-4)GlcNAc
In short: as §1

[37] = target: Gal(b1-3)GlcNAc(b1-2)Man(a1-3)[Gal(b1-3)GlcNAc(b1-2)Man(a1-6)]Man(b1-4)GlcNAc(b1-4)GlcNAc
In short: as §1

B1: Gal 3 (Homo sapiens), P17931 (protein)
chain: MADNFSLHDALSGSGNPNPQGWPGAWGNQPAGAGGYPGASYPGAYPGQAPPGAYPGQAPPGAYHGAPGAYPGAPAPGVYPGPPSGPGAYPSSGQPSAPGAYPATGPYGAPAGPLIVPYNLPLPGGVVPRMLITILGTVKPNANILDFQRGNDVAFHFNPRFNENNRRVIVCNTLLDNNWGREERQSVFPFESGKPFKIQVLVEPDHFKVAVNDAHLLQYNHRVKKLNEISKLGISGDIDLTSASYTMI
glycan array binding signal (z-score) [1]: -0.265
glycan array binding signal (z-score) [2]: -0.258
glycan array binding signal (z-score) [3]: -0.262
glycan array binding signal (z-score) [4]: -0.27
glycan array binding signal (z-score) [5]: -0.262
glycan array binding signal (z-score) [6]: -0.272
glycan array binding signal (z-score) [7]: -0.266
glycan array binding signal (z-score) [8]: -0.266
glycan array binding signal (z-score) [9]: -0.266
glycan array binding signal (z-score) [10]: -0.262
glycan array binding signal (z-score) [11]: -0.264
glycan array binding signal (z-score) [12]: -0.272
glycan array binding signal (z-score) [13]: -0.249
glycan array binding signal (z-score) [14]: -0.271
glycan array binding signal (z-score) [15]: -0.269
glycan array binding signal (z-score) [16]: -0.267
glycan array binding signal (z-score) [17]: -0.265
glycan array binding signal (z-score) [18]: -0.258
glycan array binding signal (z-score) [19]: -0.267
glycan array binding signal (z-score) [20]: -0.268
glycan array binding signal (z-score) [21]: -0.268
glycan array binding signal (z-score) [22]: -0.271
glycan array binding signal (z-score) [23]: -0.264
glycan array binding signal (z-score) [24]: -0.269
glycan array binding signal (z-score) [25]: -0.263
glycan array binding signal (z-score) [26]: -0.269
glycan array binding signal (z-score) [27]: -0.269
glycan array binding signal (z-score) [28]: 4.03
glycan array binding signal (z-score) [29]: -0.269
glycan array binding signal (z-score) [30]: -0.268
glycan array binding signal (z-score) [31]: 0.16
glycan array binding signal (z-score) [32]: -0.262
glycan array binding signal (z-score) [33]: -0.269
glycan array binding signal (z-score) [34]: -0.27
glycan array binding signal (z-score) [35]: -0.267
glycan array binding signal (z-score) [36]: -0.265
glycan array binding signal (z-score) [37]: -0.252

— the supplement of paper PMC8728848
